B1: 31192494_31192614_209_3pUTR_ENSMUSG00000029165_ENSMUST00000031057|mouse|control|control (ssRNA)
RNA: GGGAGUUCUACAGUCCGACGAUCCCACCUUUUCCACAUGGGCUAGGUUCCCUGAAUCAAAGCGAGAACUGAACAGCAAUCCCCCACAGCGCAGCUCCAUGGUGGGGCUGGGAAAGCAUCCUCUUGCCCCACACAGGCCCUGAGCAACAGAGGAUUGAGCAUCA
B2: chr14:89307221:89307222:+_ENSG00000165533_ENST00000346301|hu_mus|hu_hu_hu_mus_False|88_88 (ssRNA)
RNA: GGGAGUUCUACAGUCCGACGAUCUCCUGUUUGGUUAGUGCCAGGGAGUUUCAAAGAUGUGCCAGGGCGUGGGACCUGAGCAAUAGCAUUUUCAUCCAGGAUCAUUUCAGCAAUUCCUUCCUGGUCCACAUCAAUUUCAUCUAUCAACAGAGGAUUGAGCAUCA
B3: chr19:8913615:8913616:-_ENSMUSG00000071658_ENSMUST00000096259|mus_hu|mus_mus_mus_hu_False|38_78 (ssRNA)
RNA: GGGAGUUCUACAGUCCGACGAUCAGGGUACCAAAACCUUCUGCCUGAAAUGGGUGCCCCACCCUGCAGGGAGUUGCAGCUGAAAGUAUCUGAUGCACUGACAGUUACUAUACGAAAGGAGGCCCCUGGGGAGGGCCAGGCCAGCAACAGAGGAUUGAGCAUCA
B4: chr3:41266964:41266965:+_ENSG00000168036_ENST00000349496|hu_mus|FALSE|FALSE (ssRNA)
RNA: GGGAGUUCUACAGUCCGACGAUCGAUGGCCAGCAAGCCCUCGCGGUGGUGAGAAAGGUUGUGCAGAGUCCCAGCAGUACAACGAGCUGUCUCUACAUCAUUUGUAUUCUGCAUGGUGCGUACAAUGGCAGACACCAUCUGAGGCAACAGAGGAUUGAGCAUCA
B5: chr2:69032557:69032558:-_ENSMUSG00000005233_ENSMUST00000005365|mus_hu|motif|central (ssRNA)
RNA: GGGAGUUCUACAGUCCGACGAUCAUUGGCAAGAAAAGCUGAAAAAUUGUUGGUCUUCCUUACAUUCUCUUGAAAUUCUGCGGGGCCCUCAAGAUGAGGGGCACUAUCUGACACUUCAUAGUCCCUUGCUUCAUUGAGAUGUAACAACAGAGGAUUGAGCAUCA
B6: chr16:20684184:20684185:+_ENSMUSG00000045983_ENSMUST00000044783|mus_hu|FALSE|FALSE (ssRNA)
RNA: GGGAGUUCUACAGUCCGACGAUCUGGAGGACCGCCCCGACGCUUGUCACUGCCCUUGGCCAUGAGCUGCUGCACUUUGAUGUGCUCUCGAUGUUCUUCCAUCUCAGCCUCCUUAUGGAUCUGGUCAAUGGUCUUGGGACCCUGCAACAGAGGAUUGAGCAUCA
B7: chr6:133136146:133136147:+_ENSG00000112306_ENST00000230050|hu_hu|FALSE|FALSE (ssRNA)
RNA: GGGAGUUCUACAGUCCGACGAUCACAAAGAUGGGCUUGGCGCUUGUCUAAGGCUUUGGCAGCUUCGCGAAUUCCACGUGCUAGGCCAUCGUGGAUGAGGGCAGUCUUCAGAACCUCUUGUAAAGCAGUAUUAACGUCCAUUACCAACAGAGGAUUGAGCAUCA
B8: chr7:54825262:54825263:-_ENSG00000132432_ENST00000352861|hu_hu|hu_hu_hu_mus_False|18_108 (ssRNA)
RNA: GGGAGUUCUACAGUCCGACGAUCCUGACUUGGCUCAUCCACAAACUGCAUUACCUGAUCCAUGUUUGUUGGAUGGCGGAUUGAGAGCGUAGAGACACGUAGCUCAGGAGAGAACCGGAUGGAGGCCAACCGGAAGCUGGCAACCAACAGAGGAUUGAGCAUCA
B9: chrX:77160730:77160731:+_ENSG00000131174_ENST00000481445|hu_mus|motif|central (ssRNA)
RNA: GGGAGUUCUACAGUCCGACGAUCCUACUGAUCUCUCCAUUCCUUUGGGGUGACUCUGCCAACAGGGGACAUGUUCCAUUCGGUUCCAAUUUGUGUGGCUGUAUAUGUCCAUGUAGAAACACAGAAGAUGGCUCCACCUGCUAACAACAGAGGAUUGAGCAUCA
B10: chr9:71842732:71842733:+_ENSG00000119139_ENST00000377245|hu_hu|motif|central (ssRNA)
RNA: GGGAGUUCUACAGUCCGACGAUCAUCAUAAUCAGAAUACUGAUGACGUCUCUCCUCUGGAGAAAAUGAUCGGUUUGACUCGGUUUCUGAAAUAUCUUCUAUUUCUGAGUCACUGUCAUUUAAUGACGGGAUGUUGAUGAGGGUCAACAGAGGAUUGAGCAUCA
B11: chr1:130485734:130485735:-_ENSMUSG00000045382_ENSMUST00000052172|mus_mus|mus_mus_mus_hu_False|78_78 (ssRNA)
RNA: GGGAGUUCUACAGUCCGACGAUCGAUGAAGGAGUCGAUGCUGAUCCCAAUGUAGUAUGGCAGCCAGCAGGCGAAGAAAGCCAGGAUGAGGAUGACUGUGGUCUUGAGGGCCUUGCGCUUCUGGUGGCCCUUGGAGUGUGACAGCAACAGAGGAUUGAGCAUCA
B12: chr14:78183846:78183847:+_ENSG00000119705_ENST00000557342|hu_hu|hu_hu_hu_mus_False|18_88 (ssRNA)
RNA: GGGAGUUCUACAGUCCGACGAUCUCUCAGAAAUCUUUCUUCAUCAGCAUCAUCAGAUCCGUGCAAAGCCUUUGCUCUUUGAGCUUGAACGUGGAUCUAUGGGAGGGAAAGCACUGUAUUUUCCUGUAAUUUUUUUUUUAAAGACAACAGAGGAUUGAGCAUCA
B13: chr7:135834168:135834169:+_ENSMUSG00000042105_ENSMUST00000151237|mus_hu|FALSE|FALSE (ssRNA)
RNA: GGGAGUUCUACAGUCCGACGAUCUUCAUCAUCAUAAUAGGCCACGUAGUAGGCAGAGUUAGAAAGCAGUAACAGCACAUCCACGUCUCUGUGAGUAGCAUCAAUGAGGGUGCACUCUGAAAAUUGUUGCUUGAGCCAAGCCAUCAACAGAGGAUUGAGCAUCA
B14: chr2:179515052:179515053:+_ENSMUSG00000000305_ENSMUST00000000314|mus_mus|motif|central (ssRNA)
RNA: GGGAGUUCUACAGUCCGACGAUCGCGUUCCCGCGCAGUGACGGUAAAGGCCACCUGCUCUGAGGGGAUCUUCAACUCCCGGGUGGCGAAGACUGUCCCAUCCGCCCCGACUUUGAAGUCCAAGCUGUUGGUCUCAUACUGCAUCAACAGAGGAUUGAGCAUCA
B15: 169336970_169337090_175_5pUTR_ENSG00000143156_ENST00000367811|human|control|control (ssRNA)
RNA: GGGAGUUCUACAGUCCGACGAUCAAAAUAGGUAUCGUUGAGACAGGAAGACACCACCACCACCACCAUCAUACGGUUACUCAGGCAACAAAGCCCCGCCCACUGUCGCACGAGGCGUGGGACGCCACCGCCCCACCUCUUCGUCAACAGAGGAUUGAGCAUCA
B16: chr1:231488893:231488894:+_ENSG00000010072_ENST00000295050|hu_mus|FALSE|FALSE (ssRNA)
RNA: GGGAGUUCUACAGUCCGACGAUCGACCAGCCGCCGUUGACUGCUCAAGCUCUGAGGAGCGCUGGCGGCUGUGGGCUGUGAGCUACUCCGAAGGUCACCACCACUUUGUGUUUGUUCCUUGAUAGUAUCCAAAGCAGUCCUGUCCAACAGAGGAUUGAGCAUCA
B17: chrX:101971874:101971875:+_ENSG00000158301_ENST00000332262|hu_hu|FALSE|FALSE (ssRNA)
RNA: GGGAGUUCUACAGUCCGACGAUCCAUAGUGAGGUGUCUAAGCAUCCUUAUUCCAGUCAGCUGCUCAAGGGAAUCCACACUAUGUGCAAGGGUUUCCUCACACACUUGACAUAUGAAUGUCUCAAUCAUGUUUAGAUUUGGAUACAACAGAGGAUUGAGCAUCA
B18: 148340382_148341706_542_3pUTR_ENSMUSG00000028975_ENSMUST00000103217|mouse|control|control (ssRNA)
RNA: GGGAGUUCUACAGUCCGACGAUCCUCAGUAGCUCUUGGACAGAGGCCAGUGUUGUCUGCACCUGAGUCACUGUCUGGGCCACGGUGCCACUCAGUUCCGAGAGACUCGCUGCCAUCCUCUCCAGCUGCUUUCUGUCCUCUCGGCAACAGAGGAUUGAGCAUCA
B19: 234357861_234357981_1799_3pUTR_ENSG00000077044_ENST00000264057|human|control|control (ssRNA)
RNA: GGGAGUUCUACAGUCCGACGAUCAGGCUGUUGGCUCUCAGCAUGAGCUGUUCUCGAGGCCGGAAUAUCUGCGGCCGGGCCGGGCAAGCUGAUGCCACCAAGCGGUCUCCGGUGGAACCGCAGAUGCUGCCCGACCCAUCUCCACAACAGAGGAUUGAGCAUCA
B20: 122260803_122260923_138_5pUTR_ENSMUSG00000032540_ENSMUST00000156520|mouse|control|control (ssRNA)
RNA: GGGAGUUCUACAGUCCGACGAUCCCGCCGCCAUCGCUUUCAUCACCGCCGCCGCGCAAGCGCAGGGACACACCUCGAAGCCGGCUGACAGGCCGACUGGGCGGCCCCGGGCCGCGGCCGCCCUUAAGACCGCACCGCCCGCGCCAACAGAGGAUUGAGCAUCA
B21: chr1:163112212:163112213:-_ENSG00000143248_ENST00000313961|hu_hu|hu_hu_hu_mus_False|68_68 (ssRNA)
RNA: GGGAGUUCUACAGUCCGACGAUCUUUUAUUAUCAGUAAGAGUGAGUUACAUACUAGGCAAAGUAUUGAAUACAAAAAUCAGGAAACAAACACUAUUGGUCCAGAAUUUAAAACUUUAUGAGCGAAGUGCUGGCACAGGACUUACAACAGAGGAUUGAGCAUCA
B22: chr19:40030274:40030275:-_ENSG00000176396_ENST00000390658|hu_hu|motif|central (ssRNA)
RNA: GGGAGUUCUACAGUCCGACGAUCCGGGUAAUUUUCCAGAUAGUGGCGGAGAAACUGCUGGUAAUUGAUGCCUAAAACGCGGAGUGGGUGGCGGAGACGGAGAUAGGGCAACGCAGCCAGGCCUCCGUUCCCGUGUCUGGACCUCAACAGAGGAUUGAGCAUCA

This is one part of the list.

This assay deals with T1, UNK ZnF1-3 (human, UniProt Q9C0B0 31-174).
T1 sequence: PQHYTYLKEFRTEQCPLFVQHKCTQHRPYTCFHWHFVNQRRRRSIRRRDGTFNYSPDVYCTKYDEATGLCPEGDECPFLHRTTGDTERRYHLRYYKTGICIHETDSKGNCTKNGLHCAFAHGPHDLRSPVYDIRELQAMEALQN
Kind of assay: nsRBNS (natural sequence RNA bind-n-seq); RBNS binding buffer (assumed for nsRBNS): 25 mM Tris pH 7.5, 150 mM KCl, 3 mM MgCl2, 0.01% Triton X-100, 500 ug/ml BSA, 20 U/ml SUPERase-In, 4 C; UNK is unkempt and MSI1 is Musashi-1; names of the RNAs are library labels; protein concentration not given here; high values mean tight binding.
For the molecule B1, the binding signal was determined as 1.48 enrichment R.

B2 returned a binding signal of 0.905 enrichment R.

Molecule B3 gave a binding signal of 2.15 enrichment R.

The molecule B4 returned a binding signal of 0.786 enrichment R.

Turning to B5, the binding signal was found to be 0.748 enrichment R.

The molecule B6 displayed a binding signal of 0.404 enrichment R.

For B7, the binding signal was found to be 0.995 enrichment R.

With B8, the binding signal was found to be 1.12 enrichment R.

On to B9, for which the binding signal was found to be 1.05 enrichment R.

B10 displayed a binding signal of 0.745 enrichment R.

Take B11: the binding signal is 1.26 enrichment R.

Regarding B12, the binding signal worked out at 1.38 enrichment R.

For B13, the binding signal turned out to be 1.09 enrichment R.

B14: the binding signal was determined as 0.702 enrichment R.

B15 came in with a binding signal of 0.937 enrichment R.

In turn, B16 gave a binding signal of 1.31 enrichment R.

On to B17, for which the binding signal came to 0.605 enrichment R.

In the case of B18, the binding signal stood at 0.496 enrichment R.

Consider B19, for which the binding signal came out at 0.41 enrichment R.

The molecule B20 registered a binding signal of 1.15 enrichment R.

B21 yielded a binding signal of 1.27 enrichment R.

As for B22, the binding signal came to 0.867 enrichment R.

For the origin of these results see paper PMC12136788.
